# Assay results from the supplement of paper PMC8728848.
# The list shows a part of the results.
# B1: Jacalin (Artocarpus integrifolia) (protein)
# chain: MAYSSLLSLSVLALLFSISSADTRKWFLANGINQNPIGIIEAAVGVSEDLLNLNGMEAKNDEQSGISQTVIVGPWGAKVSTSSNGKAFDDGAFTGIREINLSYNKETAIGDFQVVYDLNGSPYVGQNHKSFITGFTPVKISLDFPSEYIMEVSGYTGNVSGYVVVRSLTFKTNKKTYGPYGVTSGTPFNLPIENGLIVGFKGSIGYWLDYFSMYLSL
# Columns and labels:
# Experiment in all cases: glycan array binding signal (z-score within array); higher = stronger binding
# Conditions in all cases: glycan notation: IUPAC condensed, linker removed
# [1] = molecular target: Neu5Ac(a2-3)Gal(b1-3)GlcNAc6S
# In short: (§1)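 Columns mapping to the same glycan were averaged after glycan names were converted to IUPAC-condensed notation. The data come from 3228 arrays in the Consortium for Functional Glycomics database, limited to those with an available protein sequence. Binding is reported as a within-array Z-score averaged across arrays of one protein sequence and across linkers.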
# [2] = molecular target: Neu5Ac(a2-3)Gal(b1-3)[Fuc(a1-4)]GlcNAc
# In short: as §1
# [3] = molecular target: Neu5Ac(a2-3)Gal(b1-3)[Fuc(a1-4)]GlcNAc(b1-3)Gal(b1-3)[Fuc(a1-4)]GlcNAc
# In short: as §1
# [4] = molecular target: Neu5Ac(a2-3)Gal(b1-3)[Fuc(a1-4)]GlcNAc(b1-3)Gal(b1-4)[Fuc(a1-3)]GlcNAc
# In short: as §1
# [5] = molecular target: Neu5Ac(a2-3)Gal(b1-3)[GlcNAc(b1-6)]GalNAc
# In short: as §1
# [6] = molecular target: Neu5Ac(a2-3)Gal(b1-3)[Neu5Ac(a2-3)Gal(b1-4)]GlcNAc
# In short: as §1
# [7] = molecular target: Neu5Ac(a2-3)Gal(b1-3)[Neu5Ac(a2-6)]GalNAc
# In short: as §1
# [8] = molecular target: Neu5Ac(a2-3)Gal(b1-3)[Neu5Ac(a2-6)]GlcNAc(b1-3)[Fuc(a1-3)[Gal(b1-4)]GlcNAc(b1-6)]Gal(b1-4)Glc
# In short: as §1
# [9] = molecular target: Neu5Ac(a2-3)Gal(b1-3)]Neu5Ac(a2-3)Gal(b1-4)]GlcNAc
# In short: as §1
# [10] = molecular target: Neu5Ac(a2-3)Gal(b1-4)Glc
# In short: as §1
# [11] = molecular target: Neu5Ac(a2-3)Gal(b1-4)GlcNAc
# In short: as §1
# [12] = molecular target: Neu5Ac(a2-3)Gal(b1-4)GlcNAc(b1-2)Man
# In short: as §1
# [13] = molecular target: Neu5Ac(a2-3)Gal(b1-4)GlcNAc(b1-2)Man(a1-3)[GlcNAc(b1-4)][Neu5Ac(a2-3)Gal(b1-4)GlcNAc(b1-2)Man(a1-6)]Man(b1-4)GlcNAc(b1-4)GlcNAc
# In short: as §1
# [14] = molecular target: Neu5Ac(a2-3)Gal(b1-4)GlcNAc(b1-2)Man(a1-3)[Neu5Ac(a2-3)Gal(b1-4)GlcNAc(b1-2)Man(a1-6)]Man(b1-4)GlcNAc(b1-4)GlcNAc
# In short: as §1
# [15] = molecular target: Neu5Ac(a2-3)Gal(b1-4)GlcNAc(b1-2)Man(a1-3)[Neu5Ac(a2-3)Gal(b1-4)GlcNAc(b1-2)Man(a1-6)]Man(b1-4)GlcNAc(b1-4)[Fuc(a1-6)]GlcNAc
# In short: as §1
# [16] = molecular target: Neu5Ac(a2-3)Gal(b1-4)GlcNAc(b1-2)Man(a1-3)[Neu5Ac(a2-6)Gal(b1-4)GlcNAc(b1-2)Man(a1-6)]Man(b1-4)GlcNAc(b1-4)GlcNAc
# In short: as §1
# [17] = molecular target: Neu5Ac(a2-3)Gal(b1-4)GlcNAc(b1-2)[Neu5Ac(a2-3)Gal(b1-4)GlcNAc(b1-4)]Man(a1-3)[GlcNAc(b1-4)][Neu5Ac(a2-3)Gal(b1-4)GlcNAc(b1-2)[Neu5Ac(a2-3)Gal(b1-4)GlcNAc(b1-6)]Man(a1-6)]Man(b1-4)GlcNAc(b1-4)GlcNAc
# In short: as §1
# [18] = molecular target: Neu5Ac(a2-3)Gal(b1-4)GlcNAc(b1-2)[Neu5Ac(a2-3)Gal(b1-4)GlcNAc(b1-4)]Man(a1-3)[GlcNAc(b1-4)][Neu5Ac(a2-3)Gal(b1-4)GlcNAc(b1-4)Man(a1-6)]Man(b1-4)GlcNAc(b1-4)GlcNAc
# In short: as §1
# [19] = molecular target: Neu5Ac(a2-3)Gal(b1-4)GlcNAc(b1-2)[Neu5Ac(a2-3)Gal(b1-4)GlcNAc(b1-6)]Man(a1-6)[Neu5Ac(a2-3)Gal(b1-4)GlcNAc(b1-2)Man(a1-3)]Man(b1-4)GlcNAc(b1-4)GlcNAc
# In short: as §1
# [20] = molecular target: Neu5Ac(a2-3)Gal(b1-4)GlcNAc(b1-2)[Neu5Ac(a2-3)Gal(b1-4)GlcNAc(b1-6)]Man(a1-6)[Neu5Ac(a2-3)Gal(b1-4)GlcNAc(b1-2)Man(a1-3)][GlcNAc(b1-4)]Man(b1-4)GlcNAc(b1-4)GlcNAc
# In short: as §1
# [21] = molecular target: Neu5Ac(a2-3)Gal(b1-4)GlcNAc(b1-3)Gal
# In short: as §1
# [22] = molecular target: Neu5Ac(a2-3)Gal(b1-4)GlcNAc(b1-3)Gal(b1-3)GlcNAc
# In short: as §1
# [23] = molecular target: Neu5Ac(a2-3)Gal(b1-4)GlcNAc(b1-3)Gal(b1-4)GlcNAc
# In short: as §1
# [24] = molecular target: Neu5Ac(a2-3)Gal(b1-4)GlcNAc(b1-3)Gal(b1-4)GlcNAc(b1-2)Man(a1-3)[Neu5Ac(a2-3)Gal(b1-4)GlcNAc(b1-3)Gal(b1-4)GlcNAc(b1-2)Man(a1-6)]Man(b1-4)GlcNAc(b1-4)GlcNAc
# In short: as §1
# [25] = molecular target: Neu5Ac(a2-3)Gal(b1-4)GlcNAc(b1-3)Gal(b1-4)GlcNAc(b1-3)Gal(b1-4)GlcNAc
# In short: as §1
# [26] = molecular target: Neu5Ac(a2-3)Gal(b1-4)GlcNAc(b1-3)Gal(b1-4)GlcNAc(b1-3)Gal(b1-4)GlcNAc(b1-2)Man(a1-3)[Neu5Ac(a2-3)Gal(b1-4)GlcNAc(b1-3)Gal(b1-4)GlcNAc(b1-3)Gal(b1-4)GlcNAc(b1-2)Man(a1-6)]GalNAc
# In short: as §1
# [27] = molecular target: Neu5Ac(a2-3)Gal(b1-4)GlcNAc(b1-3)Gal(b1-4)GlcNAc(b1-3)GalNAc
# In short: as §1
# [28] = molecular target: Neu5Ac(a2-3)Gal(b1-4)GlcNAc(b1-3)Gal(b1-4)GlcNAc(b1-3)[Neu5Ac(a2-3)Gal(b1-4)GlcNAc(b1-3)Gal(b1-4)GlcNAc(b1-6)]GalNAc
# In short: as §1
# [29] = molecular target: Neu5Ac(a2-3)Gal(b1-4)GlcNAc(b1-3)Gal(b1-4)GlcNAc(b1-6)[Gal(b1-3)]GalNAc
# In short: as §1
# [30] = molecular target: Neu5Ac(a2-3)Gal(b1-4)GlcNAc(b1-3)Gal(b1-4)[Fuc(a1-3)]GlcNAc
# In short: as §1
# [31] = molecular target: Neu5Ac(a2-3)Gal(b1-4)GlcNAc(b1-3)GalNAc
# In short: as §1
# [32] = molecular target: Neu5Ac(a2-3)Gal(b1-4)GlcNAc(b1-3)[Neu5Ac(a2-3)Gal(b1-4)GlcNAc(b1-6)]GalNAc
# In short: as §1
# [33] = molecular target: Neu5Ac(a2-3)Gal(b1-4)GlcNAc(b1-6)GalNAc
# In short: as §1
# [34] = molecular target: Neu5Ac(a2-3)Gal(b1-4)GlcNAc(b1-6)[Gal(b1-3)]GalNAc
# In short: as §1
# [35] = molecular target: Neu5Ac(a2-3)Gal(b1-4)GlcNAc(b1-6)[Neu5Ac(a2-3)Gal(b1-3)]GalNAc
# In short: as §1
# [36] = molecular target: Neu5Ac(a2-3)Gal(b1-4)GlcNAc6S
# In short: as §1
# [37] = molecular target: Neu5Ac(a2-3)Gal(b1-4)[Fuc(a1-3)]GlcNAc
# In short: as §1
# [38] = molecular target: Neu5Ac(a2-3)Gal(b1-4)[Fuc(a1-3)]GlcNAc(b1-2)Man
# In short: as §1
# [39] = molecular target: Neu5Ac(a2-3)Gal(b1-4)[Fuc(a1-3)]GlcNAc(b1-3)Gal
# In short: as §1
# [40] = molecular target: Neu5Ac(a2-3)Gal(b1-4)[Fuc(a1-3)]GlcNAc(b1-3)Gal(b1-4)GlcNAc
# In short: as §1
# [41] = molecular target: Neu5Ac(a2-3)Gal(b1-4)[Fuc(a1-3)]GlcNAc(b1-3)Gal(b1-4)[Fuc(a1-3)]GlcNAc(b1-3)Gal(b1-4)[Fuc(a1-3)]GlcNAc
# In short: as §1
# [42] = molecular target: Neu5Ac(a2-3)Gal(b1-4)[Fuc(a1-3)]GlcNAc(b1-3)GalNAc
# In short: as §1
binder,measurement,setting,value
B1,glycan array binding signal (z-score),[1],-0.214
same,glycan array binding signal (z-score),[2],-0.286
same,glycan array binding signal (z-score),[3],-0.221
same,glycan array binding signal (z-score),[4],-0.255
same,glycan array binding signal (z-score),[5],-0.27
same,glycan array binding signal (z-score),[6],-0.353
same,glycan array binding signal (z-score),[7],-0.101
same,glycan array binding signal (z-score),[8],-0.275
same,glycan array binding signal (z-score),[9],-0.263
same,glycan array binding signal (z-score),[10],-0.236
same,glycan array binding signal (z-score),[11],-0.255
same,glycan array binding signal (z-score),[12],-0.183
same,glycan array binding signal (z-score),[13],-0.281
same,glycan array binding signal (z-score),[14],-0.26
same,glycan array binding signal (z-score),[15],0.007
same,glycan array binding signal (z-score),[16],-0.249
same,glycan array binding signal (z-score),[17],-0.264
same,glycan array binding signal (z-score),[18],-0.283
same,glycan array binding signal (z-score),[19],-0.209
same,glycan array binding signal (z-score),[20],-0.259
same,glycan array binding signal (z-score),[21],-0.282
same,glycan array binding signal (z-score),[22],-0.28
same,glycan array binding signal (z-score),[23],-0.288
same,glycan array binding signal (z-score),[24],0.008
same,glycan array binding signal (z-score),[25],-0.295
same,glycan array binding signal (z-score),[26],0.501
same,glycan array binding signal (z-score),[27],0.779
same,glycan array binding signal (z-score),[28],-0.224
same,glycan array binding signal (z-score),[29],-0.212
same,glycan array binding signal (z-score),[30],-0.274
same,glycan array binding signal (z-score),[31],0.375
same,glycan array binding signal (z-score),[32],-0.276
same,glycan array binding signal (z-score),[33],-0.268
same,glycan array binding signal (z-score),[34],-0.276
same,glycan array binding signal (z-score),[35],-0.287
same,glycan array binding signal (z-score),[36],-0.284
same,glycan array binding signal (z-score),[37],-0.272
same,glycan array binding signal (z-score),[38],-0.271
same,glycan array binding signal (z-score),[39],-0.274
same,glycan array binding signal (z-score),[40],-0.261
same,glycan array binding signal (z-score),[41],-0.25
same,glycan array binding signal (z-score),[42],-0.006
